These results are taken from paper PMC12820563, “FoxP3 forms a head-to-head dimer in vivo and stabilizes its multimerization on adjacent microsatellites”.

This is one part of the list.

The assay has as its target T1, MBP-FoxP1dN (Mus musculus, UniProt P58462 326-579).
T1 sequence: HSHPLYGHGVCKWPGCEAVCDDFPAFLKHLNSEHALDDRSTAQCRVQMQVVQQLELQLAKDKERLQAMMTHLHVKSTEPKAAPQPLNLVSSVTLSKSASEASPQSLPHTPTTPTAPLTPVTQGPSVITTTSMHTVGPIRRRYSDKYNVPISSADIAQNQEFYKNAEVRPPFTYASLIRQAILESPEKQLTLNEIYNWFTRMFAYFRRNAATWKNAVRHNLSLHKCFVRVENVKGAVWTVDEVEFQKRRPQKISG
Put plainly: PD-seq (MBP pull-down with sequencing); 20 mM Tris-HCl pH 7.5, 100 mM NaCl, 1.5 mM MgCl2, 0.4 uM protein, 0.1 uM dsDNA library, 30 min, room temperature, amylose pull-down; high values mean tight binding. The settings on record: protein: recombinant; tags: His6-MBP; chain copies: 2; dsDNA, one strand shown. In short, it runs like this: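 Binding is given as reads-per-million enrichment, pull-down over input, with replicates pooled. The bait was an N-terminus-lacking mouse FoxP3 or FoxP1 fragment with a His6-MBP tag, expressed in E. coli and used at 0.4 µM with 0.1 µM Klenow-filled degenerate double-stranded DNA library for 30 min at room temperature in Tris pH 7.5 buffer with NaCl and MgCl2. Amylose resin pull-down with three washes was followed by proteinase K release, PCR barcoding and Illumina sequencing.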
Regarding “GATGATTGTTCTCCCAGCTGATGAATTCCCTGGGTCGAGTAAACAAATTTTCCTAATCTTTCTGTTCAAGCGCCATCTAC”, the binding signal is 0.764 RPM ratio (pull-down/input).
The same measure for “GATGATTGTTCTCCCAGCTGATGAATTACAGTGCTCGAGTAAACAAATTTTCCTAATCTTTCTGTTCAAGCGCCATCTAC”: 1 RPM ratio (pull-down/input).
The same measure for “GATGATTGTTCTCCCAGCTGATGAATTACAGTGGTCGAGTAAACAAATTTTCCTAATCTTTCTGTTCAAGCGCCATCTAC”: 0.994 RPM ratio (pull-down/input).
With “GATGATTGTTCTCCCAGCTGATGAATTTCTACCGTCGAGTAAACAAATTTTCCTAATCTTTCTGTTCAAGCGCCATCTAC”, the binding signal is 0.893 RPM ratio (pull-down/input).
Turning to “GATGATTGTTCTCCCAGCTGATGAATTACGCATGTCGAGTAAACAAATTTTCCTAATCTTTCTGTTCAAGCGCCATCTAC”, the binding signal was 1.05 RPM ratio (pull-down/input).
To “GATGATTGTTCTCCCAGCTGATGAATTGAGTGAGTCGAGTAAACAAATTTTCCTAATCTTTCTGTTCAAGCGCCATCTAC” belongs 0.868 RPM ratio (pull-down/input); to “GATGATTGTTCTCCCAGCTGATGAATTGGGAGATTCGAGTAAACAAATTTTCCTAATCTTTCTGTTCAAGCGCCATCTAC”, 0.878 RPM ratio (pull-down/input).
Consider “GATGATTGTTCTCCCAGCTGATGAATTTTCTTCTTCGAGTAAACAAATTTTCCTAATCTTTCTGTTCAAGCGCCATCTAC”, for which the binding signal was 0.985 RPM ratio (pull-down/input).
To “GATGATTGTTCTCCCAGCTGATGAATTAGTAAGTTCGAGTAAACAAATTTTCCTAATCTTTCTGTTCAAGCGCCATCTAC” belongs 0.984 RPM ratio (pull-down/input); to “GATGATTGTTCTCCCAGCTGATGAATTCACGACGTCGAGTAAACAAATTTTCCTAATCTTTCTGTTCAAGCGCCATCTAC”, 0.923 RPM ratio (pull-down/input).
The same measure for “GATGATTGTTCTCCCAGCTGATGAATTAGCATTATCGAGTAAACAAATTTTCCTAATCTTTCTGTTCAAGCGCCATCTAC”: 1.28 RPM ratio (pull-down/input).
As for “GATGATTGTTCTCCCAGCTGATGAATTCCGATGTTCGAGTAAACAAATTTTCCTAATCTTTCTGTTCAAGCGCCATCTAC”, the binding signal is 0.867 RPM ratio (pull-down/input).
On to “GATGATTGTTCTCCCAGCTGATGAATTCTTGGCGTCGAGTAAACAAATTTTCCTAATCTTTCTGTTCAAGCGCCATCTAC”, for which the binding signal is 0.895 RPM ratio (pull-down/input).
The same measure for “GATGATTGTTCTCCCAGCTGATGAATTAGCGCAGTCGAGTAAACAAATTTTCCTAATCTTTCTGTTCAAGCGCCATCTAC”: 0.971 RPM ratio (pull-down/input); for “GATGATTGTTCTCCCAGCTGATGAATTATTGGCTTCGAGTAAACAAATTTTCCTAATCTTTCTGTTCAAGCGCCATCTAC”: 1.1 RPM ratio (pull-down/input); for “GATGATTGTTCTCCCAGCTGATGAATTTAGTGCCTCGAGTAAACAAATTTTCCTAATCTTTCTGTTCAAGCGCCATCTAC”: 0.993 RPM ratio (pull-down/input).
To “GATGATTGTTCTCCCAGCTGATGAATTGCGTCCATCGAGTAAACAAATTTTCCTAATCTTTCTGTTCAAGCGCCATCTAC” belongs 1.08 RPM ratio (pull-down/input); to “GATGATTGTTCTCCCAGCTGATGAATTAGATACTTCGAGTAAACAAATTTTCCTAATCTTTCTGTTCAAGCGCCATCTAC”, 1.06 RPM ratio (pull-down/input).
